# Data as given in PubChem BioAssay AID588579 (National Center for Advancing Translational Sciences (NCATS), 2011).
# In all, about 400,000 compounds went through this assay and about 2,200 (0.55%) were called active. The shares of active, inactive and inconclusive entries below differ from those in the screen. The call rests on the fitted dose curve; in most records, active means well fitted inhibition curve with a large enough effect; inconclusive means small, poorly fitted or top-dose-only effect, or another doubt; inactive means no such curve, though single readings can be large or run the other way. A potency beside an inconclusive call is a rough fit, not a confirmed value.
# Target: DNA polymerase kappa (Homo sapiens) (UniProt Q9UBT6)
# Assay: qHTS for Inhibitors of Polymerase Kappa
# Conditions: purified Pol kappa, fluorescent DNA synthesis assay, 10 min; series mostly up to 107 µM
# Outline: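 50 nM final substrate added after 15 min RT preincubation of 10 nM Pol kappa with compound; fluorescence read at 0 and 10 min.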
# Potency means the concentration at half of the fitted maximal effect; tags describe the fitted curve by direction and shape.
# Chain of UniProt Q9UBT6 (Q9UBT6 whole entry, looked up): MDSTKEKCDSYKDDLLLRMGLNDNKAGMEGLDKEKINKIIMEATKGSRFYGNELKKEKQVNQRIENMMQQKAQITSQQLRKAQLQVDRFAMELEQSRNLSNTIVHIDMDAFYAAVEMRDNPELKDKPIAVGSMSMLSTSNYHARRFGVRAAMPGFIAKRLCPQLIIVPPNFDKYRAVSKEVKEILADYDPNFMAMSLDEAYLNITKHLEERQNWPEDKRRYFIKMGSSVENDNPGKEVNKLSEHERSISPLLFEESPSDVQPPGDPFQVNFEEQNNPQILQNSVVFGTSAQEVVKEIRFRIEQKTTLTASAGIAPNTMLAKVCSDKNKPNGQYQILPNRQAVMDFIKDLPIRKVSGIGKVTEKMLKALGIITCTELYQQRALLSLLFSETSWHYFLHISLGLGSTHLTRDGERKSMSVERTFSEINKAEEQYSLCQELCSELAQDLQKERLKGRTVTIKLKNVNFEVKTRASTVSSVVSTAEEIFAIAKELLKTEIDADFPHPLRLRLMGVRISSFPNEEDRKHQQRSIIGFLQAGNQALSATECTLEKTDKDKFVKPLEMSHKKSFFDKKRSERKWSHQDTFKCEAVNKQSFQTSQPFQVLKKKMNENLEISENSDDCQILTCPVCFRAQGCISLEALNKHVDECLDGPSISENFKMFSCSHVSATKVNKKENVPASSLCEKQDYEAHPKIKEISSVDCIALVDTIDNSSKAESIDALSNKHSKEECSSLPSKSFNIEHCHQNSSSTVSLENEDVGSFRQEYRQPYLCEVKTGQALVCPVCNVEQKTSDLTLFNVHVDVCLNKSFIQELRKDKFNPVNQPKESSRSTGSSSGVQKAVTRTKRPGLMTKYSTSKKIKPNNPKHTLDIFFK
row,Compound,Potency
1,COc1ccc(N2Cc3cccc(C(=O)Nc4cc(C)cc(C)c4)c3C2=O)cc1,"inconclusive: 89.1 µM [inhibitor, single point]"
2,O=C(O)c1cc(-n2cccc2)ccc1N1CCOCC1,"inconclusive: 89.1 µM [inhibitor, partial curve]"
3,O=c1oc(/C=C/c2ccco2)nc2sc3c(c12)CCC3,"inconclusive: 100 µM [inhibitor, single point]"
4,O=S(=O)(c1ccccc1)c1nnn2c1nc(NCc1ccc(F)cc1)c1sccc12,"inconclusive: 89.1 µM [inhibitor, single point]"
5,Cc1cccc(C)c1NC(=O)NCCc1c[nH]c2ccccc12,inactive
6,O=C(Nc1ccccc1Sc1ccccc1)c1cnn2c1NC(=C1CC1)C=C2C(F)F,inactive
7,COc1ccc(CNC(=O)C2CCCN2S(=O)(=O)c2ccc(Cl)cc2)cc1 (stereo not given),inactive
8,O=C(O)c1ccc2nc(-c3cc4cccc(O)c4oc3=O)[nH]c2c1,"inconclusive: 31.6 µM [inhibitor, single point]"
9,CCOc1ccc(Nc2ncnc3c2nc2n3CCCC2)cc1,"inconclusive: 89.1 µM [inhibitor, single point]"
10,O=C(COC(=O)C1CCN(S(=O)(=O)c2cc([N+](=O)[O-])ccc2Cl)CC1)Nc1ncc(Cl)cc1Cl,active: 79.4 µM
11,CCOc1ccc2nc(Cl)c(C3CC(c4ccc(OC)cc4)=NN3S(C)(=O)=O)cc2c1 (stereo not given),"inconclusive: 89.1 µM [inhibitor, partial curve, poor fit]"
12,Cc1cc(/C=N/Nc2ccc([N+](=O)[O-])cn2)c(C)n1-c1cccc(C(=O)O)c1,active: 70.8 µM
13,C/C(=N\Nc1nccnc1Cl)c1ccc(O)c(C)c1,"inconclusive: 89.1 µM [inhibitor, single point]"
14,O=C(N/N=C/c1ccc([N+](=O)[O-])cc1)c1cccs1,"inconclusive: 89.1 µM [inhibitor, single point]"
15,CC(SCc1cc(=O)n2c([nH]c3ccccc32)c1C#N)C(=O)O (stereo not given),"inconclusive: 100 µM [inhibitor, single point]"
16,CCOC(=O)c1ccc(-n2c(-c3ccc(C)cc3)c(C)n3c4c(=O)n(C)c(=O)n(C)c4nc23)cc1,inactive
17,Cc1ccccc1NC(=O)CSc1nc(O)cc(=O)n1C,inactive
18,O=C(Nc1ccc(NC(=O)c2ccc(Cl)cc2Cl)cc1)c1ccc2c(c1)OCO2,inactive
19,Oc1csc(Cc2nc(-c3ccc4ccccc4c3)cs2)n1,"inconclusive: 100 µM [inhibitor, single point]"
20,CCN(CC)c1ccc2c(c1)oc(=O)c1c(Cl)cc(=O)oc12,"inconclusive: 89.1 µM [inhibitor, partial curve, poor fit]"
